Laboratory results: the supplement of paper PMC3334620
Whole data set: some 33,000 sequences, median “E-score (-0.5 to 0.5)” near -0.032, cut for the highest 2% near 0.36. The list shows a part of the results.

Target: T1, Sko1 (UniProt Q02100)
T1 sequence: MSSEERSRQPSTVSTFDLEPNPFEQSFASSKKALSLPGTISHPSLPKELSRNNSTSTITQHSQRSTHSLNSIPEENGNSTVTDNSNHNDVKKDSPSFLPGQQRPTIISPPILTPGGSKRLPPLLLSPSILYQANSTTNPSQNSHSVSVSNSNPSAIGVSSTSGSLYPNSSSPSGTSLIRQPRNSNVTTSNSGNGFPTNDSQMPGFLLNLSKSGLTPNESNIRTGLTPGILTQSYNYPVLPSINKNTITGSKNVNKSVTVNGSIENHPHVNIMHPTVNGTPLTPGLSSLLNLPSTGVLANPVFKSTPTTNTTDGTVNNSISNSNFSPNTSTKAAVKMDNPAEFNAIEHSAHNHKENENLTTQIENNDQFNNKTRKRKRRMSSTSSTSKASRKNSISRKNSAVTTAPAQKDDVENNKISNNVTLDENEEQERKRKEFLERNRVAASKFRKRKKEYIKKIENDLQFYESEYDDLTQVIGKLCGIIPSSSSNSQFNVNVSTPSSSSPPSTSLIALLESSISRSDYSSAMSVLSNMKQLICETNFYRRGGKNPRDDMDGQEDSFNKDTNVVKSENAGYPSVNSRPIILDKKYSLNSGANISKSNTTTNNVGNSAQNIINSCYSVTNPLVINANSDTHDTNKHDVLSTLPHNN
Experiment: PBM E-score (8-mer binding enrichment) (E-score (-0.5 to 0.5)); higher = stronger / more preferred TF binding; most listed sequences are background and not binding sites
Conditions: protein concentration: 200 nM; construct: GST-full length
In short: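 The E-score, a modified Wilcoxon-Mann-Whitney statistic, was computed by the Universal PBM Analysis Suite for every ungapped eight-base word pooled with its reverse complement. Scans behind it were normalised with masliner after bound GST-tagged yeast transcription factors were detected with fluorescent anti-GST. The proteins, at about 100-200 nM, had been applied to universal all-10-mer Agilent arrays made double-stranded by primer extension.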

Row | Sequence | PBM E-score
1 | CGATCCAC | 0.0169
2 | AAAGAGGC | -0.141
3 | ACTGACAC | -0.0019
4 | AAGGGAAT | 0.109
5 | ATTCCACC | -0.023
6 | GAGCCGAA | -0.117
7 | AAAACAAC | -0.0231
8 | AAAATAAG | 0.153
9 | ATTGCTTC | -0.109
10 | CAGGTTGA | -0.109
11 | CCTCCATC | -0.249
12 | CACATAGG | 0.0316
13 | GCGCCTCA | -0.268
14 | CGAACGCA | 0.253
15 | AACCGGCA | -0.294
16 | ATCGCGGC | -0.0416
17 | CCATGCAG | -0.171
18 | AGGGCAAC | -0.12
19 | ACATTTCT | 0.0757
20 | CACTCAAG | -0.0751
21 | CCCTTAAA | 0.0491
22 | CCCATATC | -0.0139
23 | ATTTCCAG | -0.028
24 | GCTTCTAA | 0.0137
25 | CGCAACAA | 0.298

Row | Sequence | PBM E-score
26 | ATCTTAAT | 0.125
27 | CTGGTTAC | -0.00958
28 | ATTTGGGG | -0.0232
29 | TCGGCCCA | -0.0925
30 | CAAGCGAA | 0.124
31 | GGCTCGGA | -0.342
32 | CAAAGTTA | 0.0387
33 | CCTTAGTC | -0.154
34 | GAGGCGAC | -0.29
35 | AGCAACTA | 0.0346
36 | GGTAGGGA | -0.0404
37 | AAGGCCGG | -0.304
38 | TCGTTACA | 0.0698
39 | GCTTAGAA | 0.049
40 | AATCCATC | -0.0322
41 | CTGTAGCA | -0.162
42 | GAGTTCCA | -0.0907
43 | AGCGTGCC | -0.142
44 | ACTGGCTA | -0.178
45 | CTCAGTAC | -0.0699
46 | CGTTTCTC | -0.0661
47 | GCTGTCCC | -0.146
48 | CGCCCCAA | -0.0448
49 | ACATCGAA | 0.152
50 | AGATAGGA | -0.166

Row | Sequence | PBM E-score
51 | AGGAGTAG | -0.0306
52 | AGGACCAA | -0.0737
53 | AACTCCAA | -0.0583
54 | CCACCTAC | 0.165
55 | CATAAAAG | 0.0278
56 | CAACAAGA | 0.0102
57 | AGAAACAC | 0.113
58 | CCCGCTAC | -0.15
59 | ACTTACAT | 0.152
60 | AAAAGGAT | 0.0687
61 | GACGTCAC | 0.487
62 | ACCATAAC | 0.158
63 | CCTCTGTC | -0.185
64 | CACGTAAA | 0.437
65 | AGCTGCAC | -0.181
66 | GACTCCAC | -0.155
67 | ACTACCCT | -0.13
68 | ACCCTTAA | -0.219
69 | CTAAGAAA | 0.108
70 | TCGGGCCA | -0.317
71 | CCAACCAC | 0.0828
72 | AACTCACA | 0.0634
73 | ACTCTTTG | -0.0774
74 | AGCGTTTG | -0.0457
75 | GGGCGGGA | -0.0916

Row | Sequence | PBM E-score
76 | CGGAGTGC | -0.185
77 | ACAGGGGT | -0.325
78 | AGCAGCAA | -0.155
79 | CGAGTACA | -0.00074
80 | AGGATCGC | -0.0051
81 | GCAGGCAC | -0.156
82 | ACGACCGT | -0.195
83 | CCGTCCAA | -0.141
84 | ACCAACAC | 0.141
85 | ATGAACTA | 0.0693
86 | GATGGTGC | -0.291
87 | AGGTGCTA | -0.0841
88 | CCCAGCCA | -0.183
89 | CCTCGGTA | -0.287
90 | ATGTCTAG | 0.113
91 | ATACGTGA | 0.426
92 | ACCTATGC | -0.112
93 | CGCGTTAG | 0.0679
94 | ACGTCTTC | 0.389
95 | ATTACGAA | 0.453
96 | CCCGACAG | -0.134
97 | ACCCCAGC | -0.111
98 | ACGCAAAC | 0.321
99 | TATTTTAA | 0.223
100 | CCCATCAG | -0.278

Row | Sequence | PBM E-score
101 | CGGCATAG | -0.126
102 | CCCGTTAG | -0.302
103 | AGGCCGGC | -0.294
104 | ATATGAAT | 0.173
105 | TCTCAAGA | 0.00152
106 | CCGCGCCC | -0.318
107 | AAGAGTAC | -0.172
108 | GGCCCGGA | -0.3
109 | AATAGAGC | -0.017
110 | CGTATGGC | 0.348
111 | GTCTTGGA | -0.139
112 | CGAGGTCA | 0.00065
113 | GCTCCCGA | -0.204
114 | CAAAATCA | 0.106
115 | ATAGTACA | 0.0153
116 | CGGTGTAG | -0.154
117 | ACTTGCGC | 0.0124
118 | AGGGAAGG | -0.159
119 | TAAATCTA | 0.0922
120 | AGCTGCGC | -0.0733
121 | CCATTCTC | -0.0683
122 | AAGCATCA | 0.0233
123 | ACCACTTC | -0.111
124 | AACGCAAT | 0.38
125 | CTGGATTA | 0.0575

Row | Sequence | PBM E-score
126 | TCGCTGCA | -0.025
127 | TTACACAA | 0.295
128 | CTGTAGAC | 0.0562
129 | CGCGCGCG | 0.00025
130 | ATACTCGA | -0.11
131 | GAGCGCGA | -0.121
132 | CACGGAAG | -0.103
133 | ATGACTTA | 0.208
134 | AACGTAGC | 0.349
135 | GCTGCTCC | -0.234
136 | CGCTGTAC | -0.114
137 | CGCCGTCA | 0.0743
138 | TCCGCTAA | -0.18
139 | ACCCTTCT | -0.075
140 | ACATGGGC | -0.0496
141 | TAGGCAGA | -0.0375
142 | GCTGGGCA | -0.18
143 | AGCGTGAA | -0.156
144 | AGGTCCTC | -0.221
145 | GAGTGATC | -0.131
146 | ATTTACGA | 0.319
147 | ATCTGACC | 0.0857
148 | AAGACCGC | -0.257
149 | ACCAACTA | 0.163
150 | TCCGGAGA | -0.203

Row | Sequence | PBM E-score
151 | CATCATCG | 0.347
152 | CCACCTAG | -0.00493
153 | GAATATAA | 0.131
154 | AGGAGGCC | -0.171
155 | CTCGGGTC | -0.149
156 | CGGTAATA | 0.086
157 | GATACTAC | 0.0561
158 | ATAGCTTC | 0.0386
159 | AGTAACCC | -0.0462
160 | AACTATTG | 0.14
161 | AAGCCATT | -0.0496
162 | TTACGAAA | 0.396
163 | CCCAAAGC | -0.0538
164 | AGTGACAA | 0.0709
165 | CCTCTCCG | -0.301
166 | ACGACTCG | -0.0123
167 | TCACGACA | 0.212
168 | AGTAGGCA | -0.0135
169 | AGATGAGG | -0.118
170 | AGGAGTGC | -0.253
171 | GAAACCTC | -0.105
172 | ACAGAAAC | -0.00681
